This passage reports cell count results from the supplement of paper PMC4604168 (melanoma cell lines).

Assay in all cases: cell count relative to DMSO control; melanoma cells; higher = more viable cells
What all share (conditions): library dose: low library concentration; 72 h

Experiment [1] has as its system WM115.
For experiment [2], the system named is WM1716.
The test system of experiment [3] is WM1745.
In experiment [4] the test system is WM3526.
The subject of experiment [5] is WM3619.
For experiment [6], the system named is WM451Lu.

This is one part of the list. Single values are uncertain, as repeats are few or missing.
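Also: cell number obtained by counting DAPI-stained nuclei in high-throughput microscope images with image analysis software, screen run in 1,536-well plates.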

Regarding `Cc1cn(-c2cc(NC(=O)c3ccc(C)c(Nc4nccc(-c5cccnc5)n4)c3)cc(C(F)(F)F)c2)cn1` [nilotinib] + C[C@]1(c2nc3c(C(N)=O)cccc3[nH]2)CCCN1 [Veliparib] (first compound 0.2 µM, partner dose 1.4 µM), the cell count in experiment [1] is 93.7%; in experiment [2], 98.2%; in experiment [3], 71.1%; in experiment [4], 105%; in experiment [5], 93.2%; in experiment [6], 97.5%.

Turning to `COc1ccc(C2=N[C@@H](c3ccc(Cl)cc3)[C@@H](c3ccc(Cl)cc3)N2C(=O)N2CCNC(=O)C2)c(OC(C)C)c1` [Nutlin-3] + C#Cc1cccc(Nc2ncnc3cc(OCCOC)c(OCCOC)cc23)c1 [erlotinib] (first compound 0.1 µM, partner dose 0.8 µM), the cell count was 97.2% in experiment [1]; 100% in experiment [2]; 78.4% in experiment [3]; 107% in experiment [4]; 91.2% in experiment [5]; 113% in experiment [6].

Consider `Cc1cc(Nc2cc(N3CCN(C)CC3)nc(/C=C/c3ccccc3)n2)n[nH]1` + Nc1cccc2c1CN(C1CCC(=O)NC1=O)C2=O [lenalidomide] (first compound 0.04 µM, partner dose 1 µM), for which the cell count in experiment [1] amounted to 92.2%; in experiment [2], 98.1%; in experiment [3], 97.6%; in experiment [4], 92.8%; in experiment [5] it was 88.1%; in experiment [6], 99.7%.

Take `Cn1c(=O)n(-c2ccc(C(C)(C)C#N)cc2)c2c3cc(-c4cnc5ccccc5c4)ccc3ncc21` + Nc1cccc2c1CN(C1CCC(=O)NC1=O)C2=O [lenalidomide] (first compound 0.004 µM, partner dose 1 µM): the cell count in experiment [1] is 90.4%; in experiment [2], 81.7%; in experiment [3], 94%; in experiment [4] it was 79.7%; in experiment [5], 88.1%; in experiment [6], 106%.

As to `COc1ccc(C2=N[C@@H](c3ccc(Cl)cc3)[C@@H](c3ccc(Cl)cc3)N2C(=O)N2CCNC(=O)C2)c(OC(C)C)c1` [Nutlin-3] + C[C@@H](Oc1cc(-c2cnn(C3CCNCC3)c2)cnc1N)c1c(Cl)ccc(F)c1Cl [Crizotinib] (first compound 0.1 µM, partner dose 0.2 µM), the cell count in experiment [1] came to 90.1%; in experiment [2], 86.4%; in experiment [3], 85.4%; in experiment [4], 96.2%; in experiment [5], 95.8%; in experiment [6], 106%.

For the molecule `CC(C)C[C@H](NC(=O)[C@H](Cc1ccccc1)NC(=O)c1cnccn1)B(O)O` [Bortezomib] + O=C1NC(=O)/C(=C/c2ccc(-c3ccc(F)cc3O)o2)S1 [AS252424] (first compound 0.001 µM, partner dose 1 µM), the cell count in experiment [1] came to 92.1%; in experiment [2] it was 28.8%; in experiment [3], 56.4%; in experiment [4] it was 83.1%; in experiment [5] it was 22%; in experiment [6], 90%.

Take `Cn1c(=O)n(-c2ccc(C(C)(C)C#N)cc2)c2c3cc(-c4cnc5ccccc5c4)ccc3ncc21` + CO[C@@H]1[C@H](N(C)C(=O)c2ccccc2)C[C@H]2O[C@]1(C)n1c3ccccc3c3c4c(c5c6ccccc6n2c5c31)C(=O)NC4 [Midostaurin] (first compound 0.004 µM, partner dose 0.08 µM): the cell count in experiment [1] was 74%; in experiment [2] it was 66.7%; in experiment [3], 80.6%; in experiment [4] it was 85.3%; in experiment [5] it was 71.6%; in experiment [6], 102%.

Turning to `CC(C)C[C@H](NC(=O)[C@H](Cc1ccccc1)NC(=O)c1cnccn1)B(O)O` [Bortezomib] + Cn1cncc1[C@@](N)(c1ccc(Cl)cc1)c1ccc2c(c1)c(-c1cccc(Cl)c1)cc(=O)n2C [tipifarnib] (first compound 0.001 µM, partner dose 0.01 µM), the cell count is 84.8% in experiment [1]; 31.7% in experiment [2]; 53.2% in experiment [3]; 70.3% in experiment [4]; 21.6% in experiment [5]; 66.4% in experiment [6].

As for `COc1ccc(C2=N[C@@H](c3ccc(Cl)cc3)[C@@H](c3ccc(Cl)cc3)N2C(=O)N2CCNC(=O)C2)c(OC(C)C)c1` [Nutlin-3] + Cn1nnc2c(C(N)=O)ncn2c1=O [temozolomide] (first compound 0.1 µM, partner dose 2 µM), the cell count in experiment [1] stood at 90%; in experiment [2], 85.4%; in experiment [3], 97.7%; in experiment [4], 81.3%; in experiment [5] it was 87.8%; in experiment [6], 80.9%.

Regarding `COc1ccc(C2=N[C@@H](c3ccc(Cl)cc3)[C@@H](c3ccc(Cl)cc3)N2C(=O)N2CCNC(=O)C2)c(OC(C)C)c1` [Nutlin-3] + O=C1NC(=O)/C(=C/c2ccc(-c3ccc(F)cc3O)o2)S1 [AS252424] (first compound 0.1 µM, partner dose 1 µM), the cell count in experiment [1] came out at 80.6%; in experiment [2] it was 81.9%; in experiment [3] it was 102%; in experiment [4] it was 90.7%; in experiment [5] it was 71.2%; in experiment [6], 90.9%.

In the case of `Cc1cc(Nc2cc(N3CCN(C)CC3)nc(/C=C/c3ccccc3)n2)n[nH]1` + CCCCCCCCCCCC1=C(O)C(=O)C=C(O)C1=O [Embelin] (first compound 0.04 µM, partner dose 1.2 µM), the cell count worked out at 99.5% in experiment [1]; 108% in experiment [2]; 82.4% in experiment [3]; 84.1% in experiment [4]; 101% in experiment [5]; 125% in experiment [6].

Regarding `Cc1cn(-c2cc(NC(=O)c3ccc(C)c(Nc4nccc(-c5cccnc5)n4)c3)cc(C(F)(F)F)c2)cn1` [nilotinib] + OCCn1cc(-c2cnc3nnn(Cc4ccc5ncccc5c4)c3n2)cn1 [PF04217903] (first compound 0.2 µM, partner dose 1 µM), the cell count in experiment [1] amounted to 110%; in experiment [2], 105%; in experiment [3], 115%; in experiment [4], 97.6%; in experiment [5], 103%; in experiment [6], 92.2%.

On to `Cn1c(=O)n(-c2ccc(C(C)(C)C#N)cc2)c2c3cc(-c4cnc5ccccc5c4)ccc3ncc21` + CC(C)CCN1c2nc(Nc3cc(F)c(O)c(F)c3)ncc2N(C)C(=O)C1C [BID1870] (first compound 0.004 µM, partner dose 0.2 µM), for which the cell count worked out at 87.1% in experiment [1]; 101% in experiment [2]; 82.8% in experiment [3]; 54.8% in experiment [4]; 116% in experiment [5]; 109% in experiment [6].

Consider `COc1ccc(C2=N[C@@H](c3ccc(Cl)cc3)[C@@H](c3ccc(Cl)cc3)N2C(=O)N2CCNC(=O)C2)c(OC(C)C)c1` [Nutlin-3] + c1cc(-c2cnn3cc(-c4ccc(OCCN5CCCCC5)cc4)cnc23)ccn1 [Dorsomorphin] (first compound 0.1 µM, partner dose 0.4 µM), for which the cell count in experiment [1] amounted to 80.3%; in experiment [2], 103%; in experiment [3], 93%; in experiment [4] it was 86.4%; in experiment [5], 88%; in experiment [6] it was 105%.

`COc1ccc(C2=N[C@@H](c3ccc(Cl)cc3)[C@@H](c3ccc(Cl)cc3)N2C(=O)N2CCNC(=O)C2)c(OC(C)C)c1` [Nutlin-3] + COc1cc(N2CCC(N3CCN(C)CC3)CC2)ccc1Nc1ncc(Cl)c(Nc2ccccc2S(=O)(=O)C(C)C)n1 [NVP-TAE684] (first compound 0.1 µM, partner dose 0.08 µM): the cell count is 102% in experiment [1]; 91.2% in experiment [2]; 81.2% in experiment [3]; 83.1% in experiment [4]; 103% in experiment [5]; 90.4% in experiment [6].

On to `Cn1c(=O)n(-c2ccc(C(C)(C)C#N)cc2)c2c3cc(-c4cnc5ccccc5c4)ccc3ncc21` + O=S(=O)(c1ccccc1)N(CC(F)(F)F)c1ccc(C(O)(C(F)(F)F)C(F)(F)F)cc1 [T0901317] (first compound 0.004 µM, partner dose 1.4 µM), for which the cell count in experiment [1] turned out to be 87.5%; in experiment [2] it was 90.4%; in experiment [3], 88.1%; in experiment [4], 84.7%; in experiment [5], 88.1%; in experiment [6] it was 76.1%.

With `Cc1cn(-c2cc(NC(=O)c3ccc(C)c(Nc4nccc(-c5cccnc5)n4)c3)cc(C(F)(F)F)c2)cn1` [nilotinib] + NC1(c2ccc(-c3nc4ccn5c(=O)[nH]nc5c4cc3-c3ccccc3)cc2)CCC1 [MK2206] (first compound 0.2 µM, partner dose 0.4 µM), the cell count worked out at 85.7% in experiment [1]; 100% in experiment [2]; 92.1% in experiment [3]; 78.5% in experiment [4]; 92.3% in experiment [5]; 101% in experiment [6].

As for `Cc1cc(Nc2cc(N3CCN(C)CC3)nc(/C=C/c3ccccc3)n2)n[nH]1` + c1cc(-c2cnn3cc(-c4ccc(OCCN5CCCCC5)cc4)cnc23)ccn1 [Dorsomorphin] (first compound 0.04 µM, partner dose 0.4 µM), the cell count in experiment [1] came to 101%; in experiment [2] it was 111%; in experiment [3] it was 85.5%; in experiment [4], 106%; in experiment [5], 138%; in experiment [6] it was 97.9%.

In the case of `COc1ccc(C2=N[C@@H](c3ccc(Cl)cc3)[C@@H](c3ccc(Cl)cc3)N2C(=O)N2CCNC(=O)C2)c(OC(C)C)c1` [Nutlin-3] + Cn1c(Nc2ccc(C(F)(F)F)cc2)nc2cc(Oc3ccnc(-c4ncc(C(F)(F)F)[nH]4)c3)ccc21 [CHIR265] (first compound 0.1 µM, partner dose 0.08 µM), the cell count was 54.5% in experiment [1]; 83.7% in experiment [2]; 71.6% in experiment [3]; 71.1% in experiment [4]; 68.3% in experiment [5]; 91.1% in experiment [6].

Regarding `Cn1c(=O)n(-c2ccc(C(C)(C)C#N)cc2)c2c3cc(-c4cnc5ccccc5c4)ccc3ncc21` + OCCn1cc(-c2cnc3nnn(Cc4ccc5ncccc5c4)c3n2)cn1 [PF04217903] (first compound 0.004 µM, partner dose 1 µM), the cell count in experiment [1] came out at 97.2%; in experiment [2] it was 97.9%; in experiment [3], 106%; in experiment [4], 99.2%; in experiment [5] it was 89.3%; in experiment [6], 104%.

In the case of `Cn1c(=O)n(-c2ccc(C(C)(C)C#N)cc2)c2c3cc(-c4cnc5ccccc5c4)ccc3ncc21` + CCc1ccc(CCOc2ccc(CC3SC(=O)NC3=O)cc2)nc1 [pioglitazone] (first compound 0.004 µM, partner dose 2 µM), the cell count worked out at 92.9% in experiment [1]; 79.8% in experiment [2]; 107% in experiment [3]; 81.7% in experiment [4]; 102% in experiment [5]; 59.8% in experiment [6].

Consider `CC(C)C[C@H](NC(=O)[C@H](Cc1ccccc1)NC(=O)c1cnccn1)B(O)O` [Bortezomib] + O=C(Nc1ccccc1)c1cc([N+](=O)[O-])ccc1Cl [GW9662] (first compound 0.001 µM, partner dose 2 µM), for which the cell count was 91.2% in experiment [1]; 32.7% in experiment [2]; 58.2% in experiment [3]; 90.9% in experiment [4]; 38.8% in experiment [5]; 122% in experiment [6].

Consider `COc1ccc(C2=N[C@@H](c3ccc(Cl)cc3)[C@@H](c3ccc(Cl)cc3)N2C(=O)N2CCNC(=O)C2)c(OC(C)C)c1` [Nutlin-3] + OCc1c[nH]c2ccccc12 [Indole-3-carbinol] (first compound 0.1 µM, partner dose 0.8 µM), for which the cell count in experiment [1] was determined as 87.6%; in experiment [2], 85.8%; in experiment [3], 104%; in experiment [4], 120%; in experiment [5] it was 92.6%; in experiment [6] it was 89.5%.

For `COc1ccc(C2=N[C@@H](c3ccc(Cl)cc3)[C@@H](c3ccc(Cl)cc3)N2C(=O)N2CCNC(=O)C2)c(OC(C)C)c1` [Nutlin-3] + O=C(O)c1ccc2c(c1)nc(Nc1cccc(Cl)c1)c1ccncc12 [CX4945] (first compound 0.1 µM, partner dose 0.4 µM), the cell count in experiment [1] is 88.2%; in experiment [2], 77.1%; in experiment [3], 84.9%; in experiment [4] it was 84.7%; in experiment [5], 99.1%; in experiment [6] it was 98.5%.
